We go through 63 compounds from paper PMC6919601, “Identification of Plasmodium dipeptidyl aminopeptidase allosteric inhibitors by high throughput screening” (PLoS ONE, 2019).

Molecules are shown by their SMILES. The campaign covered roughly 110,000 compounds. About 230 (0.21%) showed an effect of 50% or more. The list shows a part of the results.
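Note: 30 min substrate incubation versus DMSO and 10 µM JCP410 controls.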

Chain of DPAP1 (Q8IIJ9 whole entry, looked up): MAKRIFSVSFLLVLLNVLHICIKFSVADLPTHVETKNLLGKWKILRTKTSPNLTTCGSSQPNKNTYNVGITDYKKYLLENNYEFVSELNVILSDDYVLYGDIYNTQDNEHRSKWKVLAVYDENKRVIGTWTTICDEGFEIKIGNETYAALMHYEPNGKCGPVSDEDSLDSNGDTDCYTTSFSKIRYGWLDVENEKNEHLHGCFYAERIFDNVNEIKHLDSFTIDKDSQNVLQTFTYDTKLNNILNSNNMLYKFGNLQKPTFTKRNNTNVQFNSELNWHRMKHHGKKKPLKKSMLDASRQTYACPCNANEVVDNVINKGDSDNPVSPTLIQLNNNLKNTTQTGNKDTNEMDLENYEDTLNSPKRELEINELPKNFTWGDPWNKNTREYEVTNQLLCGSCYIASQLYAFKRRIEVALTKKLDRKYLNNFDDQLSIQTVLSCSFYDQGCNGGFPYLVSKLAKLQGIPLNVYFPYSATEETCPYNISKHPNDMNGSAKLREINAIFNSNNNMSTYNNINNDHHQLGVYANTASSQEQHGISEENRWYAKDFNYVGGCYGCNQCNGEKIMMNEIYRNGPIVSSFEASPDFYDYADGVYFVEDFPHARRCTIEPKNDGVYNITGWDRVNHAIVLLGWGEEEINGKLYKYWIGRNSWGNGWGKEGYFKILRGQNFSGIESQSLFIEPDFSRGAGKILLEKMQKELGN

This assay has as its target DPAP1 (Plasmodium falciparum, UniProt Q8IIJ9). Briefly: primary screen, percent inhibition; read by cleavage of a fluorogenic dipeptide substrate; higher = more effect of the substance. Set-up: species or system P. falciparum D10 trophozoite lysates; single well.
For the compound `Cc1[nH]c2ccc(C(=O)NCCCN3CCOCC3)cc2c1C`, the “% Inhibition @ 10 uM” value came out at 1.78%.

For the compound `COc1cc2c(cc1OC)C(C)N(C(=O)Cn1ncc3c1-c1cc(C)ccc1OC3)CC2` (stereo not drawn), the “% Inhibition @ 10 uM” value was -8.38%.

Regarding `COCCNC1CCc2ccccc2C1` (stereo not drawn), the “% Inhibition @ 10 uM” value was -1.82%.

For `CCc1ccc(-c2cn3c(n2)sc2cc(C(=O)NCc4cccnc4)ccc23)cc1`, the “% Inhibition @ 10 uM” value was found to be 8.6%.

For the compound `Oc1ccccc1-c1cc(-c2ccc(Br)cc2)[nH]n1`, the “% Inhibition @ 10 uM” value stood at 1.83%.

As for `CCC(=O)N(CCc1ccc(OC)cc1)C1CC(=O)N(c2ccc(Br)cc2)C1=O` (stereo not drawn), the “% Inhibition @ 10 uM” value is -8.37%.

For the compound `Cc1cc(-c2ccc(C)c(S(=O)(=O)N3CCN(CCOc4ccc(Cl)cc4)CC3)c2)on1`, the “% Inhibition @ 10 uM” value is on record as -5.87%.

As to `N#CCNC(=O)[C@@H](CC1CCCCC1)NC(=O)OCc1ccccc1`, the “% Inhibition @ 10 uM” value is -1.5%.

With `COc1cc(C(=O)NCCC(=O)NCCN(C)C)cc(OC)c1OC`, the “% Inhibition @ 10 uM” value was -2.26%.

For `CCN(Cc1ccccc1)c1cc(C)c2ccc(Cl)cc2n1`, the “% Inhibition @ 10 uM” value was 1.83%.

For the compound `O=C(Cn1ncc2c(Cl)cccc21)NC1CCCc2ccccc21` (stereo not drawn), the “% Inhibition @ 10 uM” value is -4.71%.

In the case of `CC(C)CC(C(=O)NCC#N)c1cccc(-c2cccc(C(=O)NCCN3CCOCC3)c2)c1` (stereo not drawn), the “% Inhibition @ 10 uM” value came to 4.63%.

For the compound `CC1=C(C#N)C(C(F)(F)F)(C(F)(F)F)NC(c2cccnc2)=N1`, the “% Inhibition @ 10 uM” value is listed as -5.64%.

With `Cc1ccccc1CS(=O)(=O)Cc1ccc(C(=O)NC(C)C)o1`, the “% Inhibition @ 10 uM” value was 6.32%.

Consider `CC(C)(C)OC(=O)N1CCC(c2c(C(=O)NCc3ccccn3)cnn2-c2ccc(F)cc2F)CC1`, for which the “% Inhibition @ 10 uM” value is -2.35%.

Regarding `CCOc1cc(C2CC(=O)N3C(=C2C#N)SCC3(O)c2ccco2)ccc1O` (stereo not drawn), the “% Inhibition @ 10 uM” value is -5.36%.

For the compound `O=c1cc(-c2ccccc2)c2cc(O)c(O)cc2o1`, the “% Inhibition @ 10 uM” value is -2.41%.

Turning to `Cc1nc2ccccc2c(=O)n1-c1ccncc1`, the “% Inhibition @ 10 uM” value is listed as 8.19%.

As to `CC(=O)N(C(C)=O)c1c(-c2ccccc2)c(C)nn1Cc1ccc(Cl)cc1`, the “% Inhibition @ 10 uM” value is -1.68%.

On to `CN1C(=O)c2ccccc2C(C(=O)Nc2ccc(Cl)cn2)C1c1cccs1` (stereo not drawn), for which the “% Inhibition @ 10 uM” value amounted to 4.03%.

For `CCO/C(O)=C1/C(C)=NC(=S)NC1/C=C/c1ccccc1` (stereo not drawn), the “% Inhibition @ 10 uM” value was determined as 0.847%.

Turning to `C=CCSc1nc(N)cc(O)n1`, the “% Inhibition @ 10 uM” value was -4.27%.

As to `CC1CCc2c(sc(NC(=O)C3CCCCC3C(=O)O)c2C(N)=O)C1` (stereo not drawn), the “% Inhibition @ 10 uM” value is reported as -3.92%.

Turning to `CCOC(=O)N1CCN(C(=O)C2c3cc(OC)c(OC)cc3C(=O)N3CCc4ccccc4C23)CC1` (stereo not drawn), the “% Inhibition @ 10 uM” value was determined as 3.53%.

As for `Cc1ccccc1C1C(C#N)=C(N)OC2=C1C(=O)CCC2` (stereo not drawn), the “% Inhibition @ 10 uM” value came out at 1.48%.

In the case of `O=C(NCc1ccc(F)cc1)NCc1cccn1Cc1ccccc1`, the “% Inhibition @ 10 uM” value is given as -3.52%.

In the case of `Cn1cnc2c1c(=O)n(Cc1ccc(Br)cc1)c(=O)n2C`, the “% Inhibition @ 10 uM” value turned out to be 1.05%.

Turning to `CCOc1cc(C2Oc3ccccc3C3CC(c4cccs4)=NN32)ccc1OC` (stereo not drawn), the “% Inhibition @ 10 uM” value is reported as -5%.

Turning to `CCc1ccc2nc(N(CCN(C)C)C(=O)c3ccc(C(C)=O)cc3)sc2c1`, the “% Inhibition @ 10 uM” value was -1.95%.

Turning to `CC(=O)N1CCN(CCc2ccccc2)CC1`, the “% Inhibition @ 10 uM” value is recorded as 1.62%.

As for `NC(=O)c1ccccc1NC(=O)c1cccc(Cn2cc(Cl)cn2)c1`, the “% Inhibition @ 10 uM” value turned out to be 5.31%.

`Cc1ccc(-c2c(N3CCCC3)c(=O)c2=O)cc1C`: the “% Inhibition @ 10 uM” value amounted to 2.24%.

With `CCN(CC)CCN1C(=O)C(O)=C(C(=O)c2ccc(Cl)cc2)C1c1ccc(F)cc1` (stereo not drawn), the “% Inhibition @ 10 uM” value is -6.43%.

On to `O=C(NCCNC(=O)c1cccc(O)c1)c1cccc(O)c1`, for which the “% Inhibition @ 10 uM” value is -5.2%.

Take `COCC(=O)Nc1ccc(Oc2cc(Cl)c(Cl)cc2Cl)cc1`: the “% Inhibition @ 10 uM” value is reported as -2.63%.

For `CCOC(=O)c1cnn2c(N)c(C#N)cnc12`, the “% Inhibition @ 10 uM” value was found to be 0.231%.

As for `CSc1ccc2c3c(cccc13)C(=O)NC2=O`, the “% Inhibition @ 10 uM” value is given as 4.17%.

As to `Cc1nc2c(C(=O)O)cnn2c(C)c1Cc1ccc(Cl)cc1`, the “% Inhibition @ 10 uM” value came to 1.42%.

In the case of `O=C(C1=C(O)C(=O)N(CCCn2ccnc2)C1c1cccs1)c1cc2ccccc2o1` (stereo not drawn), the “% Inhibition @ 10 uM” value is recorded as 2.92%.

Consider `COc1ccc2c(c1)c1c3n2CCN(C)C3=NCC1`, for which the “% Inhibition @ 10 uM” value came to 3.8%.

As to `COCCCN(Cc1ccco1)C(=O)c1nn(C)c2c1COc1ccccc1-2`, the “% Inhibition @ 10 uM” value was -3.51%.

With `CCOc1cccc2cc(-c3cn4c(n3)sc3cc(Cl)ccc34)c(=O)oc12`, the “% Inhibition @ 10 uM” value is recorded as 3.05%.

For the compound `CC(C)NC(=O)c1ccc(COc2cccc3ccccc23)o1`, the “% Inhibition @ 10 uM” value is -3.13%.

For `CSc1nc2c(c(=O)n1C1CCOC(C)(C)C1)C1(CCCC1)Cc1ccccc1-2` (stereo not drawn), the “% Inhibition @ 10 uM” value is 2.38%.

On to `O=C(Cn1ccc2ccccc2c1=O)NCCC(=O)NC1CCCCCC1`, for which the “% Inhibition @ 10 uM” value is recorded as -0.58%.

`CCOC(=O)C1CCN(Cc2ccc3c(c2)OCO3)CC1`: the “% Inhibition @ 10 uM” value is recorded as -0.0404%.

With `COc1ccc(CN(CCC2(c3ccccc3)CCOC(C)(C)C2)C(C)=O)cc1OC` (stereo not drawn), the “% Inhibition @ 10 uM” value worked out at 6.22%.

Consider `Cc1cccc(N(CC(=O)N2CCCCCC2)S(C)(=O)=O)c1C`, for which the “% Inhibition @ 10 uM” value was -3.65%.

As to `CCOC(=O)C1CCCN(Cc2ccc(C(F)(F)F)cc2)C1` (stereo not drawn), the “% Inhibition @ 10 uM” value is on record as 1.63%.

With `CC(CC(NC(=O)OCc1ccccc1)C(=O)NCC#N)C(F)(F)F` (stereo not drawn), the “% Inhibition @ 10 uM” value is recorded as 3.66%.

In the case of `CCOc1ccc(-c2nonc2NC(=O)c2cc(OC)c(OC)c(OC)c2)cc1OCC`, the “% Inhibition @ 10 uM” value was 3.51%.

As to `CN1C(=O)C(=Cc2cn(-c3ccccc3)nc2-c2ccccc2)C(=O)N(C)C1=O`, the “% Inhibition @ 10 uM” value is on record as 15.5%.

For the compound `COc1ccc(-c2csc3ncn(CC(=O)Nc4ccccc4)c(=O)c23)cc1OC`, the “% Inhibition @ 10 uM” value is on record as 2.76%.

`O=C(CN(c1ccc(Cl)c(C(F)(F)F)c1)S(=O)(=O)c1ccccc1)NCc1cccnc1`: the “% Inhibition @ 10 uM” value is on record as -3.92%.

As to `COc1ccc(CCNC(=O)CCc2c(C)c3ccc(O)c(C)c3oc2=O)cc1OC`, the “% Inhibition @ 10 uM” value is listed as -2.57%.

For `CCCCn1c(N2CCCCCC2)nc2c1c(=O)[nH]c(=O)n2C`, the “% Inhibition @ 10 uM” value was -13.3%.

Turning to `CN1CCC(N(C)Cc2c(Cl)cccc2Cl)CC1`, the “% Inhibition @ 10 uM” value is -1.41%.

On to `CC(C)c1ccc(OCC(=O)N(Cc2nc(-c3ccccc3)no2)C(C)C)cc1`, for which the “% Inhibition @ 10 uM” value worked out at 2.23%.

As to `O=C(COc1ccc(S(=O)(=O)NC2CCCCC2)cc1)NC1CCCCC1`, the “% Inhibition @ 10 uM” value is reported as 0.83%.

`Cc1ccc(S(=O)(=O)N(C)c2ccc(C(=O)Nc3ccccc3F)cc2)cc1`: the “% Inhibition @ 10 uM” value is listed as 3.49%.

As to `Cc1ccc(C)n1CCN1CCN(C(=O)CSc2nc3ccccc3nc2N2CCOCC2)CC1`, the “% Inhibition @ 10 uM” value is listed as -3.53%.

Regarding `Cc1cc(NC(=O)CSc2nc3nccnc3c(=O)n2Cc2ccco2)[nH]n1`, the “% Inhibition @ 10 uM” value came to 1.68%.

On to `CCOC(=O)c1c(C)[nH]c(C)c1S(=O)(=O)N1CC=C(c2ccccc2)CC1`, for which the “% Inhibition @ 10 uM” value is recorded as -4.59%.
